Assay results published in the supplement of paper PMC11417369.
The other results are listed elsewhere or left out.

The sequences below were run on PF3D7_0420300 AP2 domain 1 (GST-tagged) (assay: gcPBM binding intensity (ln(normalized median fluorescence intensity)); higher = stronger DNA binding).
Outline: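 Alexa488 anti-GST antibody, scanned at 488 nm, detected GST-tagged P. falciparum DNA-binding domains that had been expressed in E. coli and incubated for 1 h on an Agilent 4 × 180k array. The array carried primer-extended double-stranded 36-bp intergenic genomic probes and negative controls. Binding intensity is the highest Masliner-normalised natural-log median intensity across replicate spots of either orientation of each probe.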

Sequence	gcPBM binding intensity (ln)
TTATTTTTTTTTAGAGCACACATTTTTAATAAGGTA [CACACA_site2133]	9.09
TATATACTATATATATGTACACAAAATTATTTTGAA [XGTACX_site8232]	9.02
ATATGTAGTGTTATTTGTTCATTGTTTTAATTTTTA [CACACA_negctrl_site1394]	9.74
TAATTATATAAATACACACACATACACCCAAATAAA [CACACA_site5819]	10.1
GAAAAAAAAATACATACACACAATATATTTATTTAT [CACACA_site3124]	9.68
TATTATATATAATATTGTACATTAAAATATTAAAGA [XGTACX_site3698]	9
GGAACGTTCATATTTCCACACACAAAAAATAAATAT [CACACA_site9101]	9.62
TTTATTTTAAAATATAGTACGCAAATAAAAATAAAT [XGTACX_site7783]	9.21
ATATGTATTAAGTGTACACATATAATGGGTTTTCTT [CACACA_site5328]	9.42
CTTATATTTGGACACACACACAATAAAATGAAAAAA [CACACA_site6614]	9.99
AAATCTTCATAATAAAGTACTTAACTCTTGGTGTTA [XGTACX_site6112]	9.04
TACACAAGAAAATTCACACACACACCGATATATATA [CACACA_site6008]	10.1
AAAAAAAAAAAAAAAACATGCAGTTAGTGGTTTTTT [TGCATGCA_site243]	9.25
AATAAATGGAAAAGGTGTACACAAAAAAAAGGGAAA [XGTACX_site4956]	9.71
GAAATGGGTAAACATACACACACACCGATATATATA [CACACA_site8610]	9.93
AAAAATTTCTATTTTTGTACTTACTTTTTAGTAATA [XGTACX_site5236]	8.94
TAACAATTATGCTGGTGTACGTTTGAAATTGGGTAT [XGTACX_site6846]	9.33
AACATCAAAATATGCACACAAACAATTAGCGGTAGT [CACACA_site2521]	9.89
ATATTTTATTTTTAAAGTACAAAAGAAAAGAATAAT [XGTACX_site8247]	9.27
GATTTACATTTTGATGAAAATAATAAAATGTGGAAA [TGCATGCA_negctrl_site409]	9.04
AAAAAAAAAGACAAAAGTACAAAGGTTCATAATTTA [XGTACX_site3978]	9.21
TGTACAAATATGTACACACACACATATTTATTTATA [CACACA_site6419]	9.86
AAAAAACAAAAAAATACACACATAAAAAGGTTTTAG [CACACA_site3584]	9.68

Sequence	gcPBM binding intensity (ln)
TTATAAGATGATTATAAAATCAAATTCATTCTTTTA [CACACA_negctrl_site1338]	8.6
AAATATGTCAAATATACACACATAATAAATATAATA [CACACA_site2310]	9.52
TAAACATAACAAAGGAGTACAAAACTTGATCAGTTC [XGTACX_site3114]	9.52
TATGTATAAAAATAATGTACAAAATATATTATATGT [XGTACX_site2794]	9.51
ATCTTAGTTGAAATATAGAATTTATAATAAAAGTTA [GTGCAC_negctrl_site122]	8.87
ATACTATAATAATACACACTCATTAGATATATAAAG [CACACA_site7787]	9.55
TGTATTTATTAATGTACACACATGCGTATGTTCGTT [CACACA_site5892]	9.61
GAAGGAAATAAATCAACACACATATATTATATATAT [CACACA_site2188]	9.57
TATATAATATATTTATGTACGTATTTAAAAATTTAT [XGTACX_site160]	9
TGAAATTTGTTATATGCATGTAAAATATTACGACGA [TGCATGCA_site201]	9.18
TTGTGTGAGCAAGTAGTGCATAATATAAATAAAAAA [GTGCAC_site9802]	9.26
CATAAATATTTGTGTTGTACAAATATATATATTTAT [XGTACX_site7363]	9.2
AAAATTGAAGGTAGAAGTACATATTTATTTCAATAA [XGTACX_site8732]	9.11
ATAGAATATTTTATTACACACAGAATAATAAAAAAT [CACACA_site6190]	9.49
TTATTTTTTTTAGCATATACAAATATATATATATAT [GTGCAC_negctrl_site4]	9.12
CTAAAAGGATGATGAATGCACTATTATTTATATGGA	9.12
AAGAATTATTTTTTATGTACTTATATGTCAATTTTC [XGTACX_site6676]	9.3
CACAGACACGGACACACACACATATATATATATATA [CACACA_site5248]	9.86
ATACACACATATATGTGTACATATACATATATATAT [XGTACX_site6744]	9.64
ATAATATGAAGAAGCACACTCAATTAAATACAGATA [CACACA_site4690]	9.42
AACAAAATAGGGAACACACACATGTCGATATATAAA [CACACA_site7265]	9.88
ATATTCTAAATAAAGGGTACACAAAAATAATTAAAG [XGTACX_site5529]	9.47
ATTGTGGATATTCTTACACACAAATTTATATATAAA [CACACA_site2601]	9.43

Sequence	gcPBM binding intensity (ln)
TTATGAATACTTCAAGTGCATTTATTTTATATGACA	9.1
TATTTGTAATATTATACACACATTATGTATTACAAA [CACACA_site3386]	9.37
TTTTGTATATTATATGTACACACAATAAGTTAATAT [CACACA_site8207]	9.52
TATGAACTTTTGGGGGTGCCTTAAAATGTATATTCT	9.48
ATATATATATAAAGCAGTACACACATTTATTTTAGA [XGTACX_site7226]	9.57
TCCCAATTTATTATGTGTACTTATTATATACATATA [XGTACX_site4033]	9.44
TATCAAAGTAGAAGAGATCGATGTCATATTGTGATG [GTGCAC_negctrl_site42]	9.3
TTATATTTCAATTAAACATGCATTTTTGTGTAGCAC [TGCATGCA_site214]	8.93
TCATATAGATTATACACACACATATATAGATATATA [CACACA_site6587]	9.69
TTATATATTTTATTATTTATAATCTTTTTTTTATTT [CACACA_negctrl_site112]	9.21
CAAAAGCGATACGGCACACATTTCCTGTTTAAATGA [CACACA_site5519]	9.26
TTAATTTTTAGAAGAACACACACATATATATTATGA [CACACA_site7969]	9.59
AAATTGATTATAAATTGTACAAGAACATACAACCTT [XGTACX_site5986]	9.32
TGTTCTCTTCTTTTTTATTTTCCAAAGTAATAAGTT [TGCATGCA_negctrl_site424]	9.28
TATATATATTTATATGCATGTAATATATTTGTATTG [TGCATGCA_site323]	9.27
AATTATTTTATGAAAAGTACACATTGTTTTAATTCT [XGTACX_site4506]	9.11
TAAATAAGTATTACTAGTACACACAAGTTGTTAATC [XGTACX_site7074]	9.47
AGAAAAAAGAGGGATACACACAAACATATATATATA [CACACA_site5269]	9.96
CATAAATCAGCCATAACACACATACATAAATACATA [CACACA_site4380]	9.67
TTAATTATAATTATATGTACGAACTTTTTTTTTTTT [XGTACX_site6586]	9.14
CATTTTTTAATAATAGCACACAGGACATACAAAACA [CACACA_site1245]	9.63
ACAGTATCTGGTAGCTGTACGAGTCGTAGAGTGTAG [XGTACX_site2011]	9.19
AAAATATAAAGTATTTGTACATAATATATTTTTAAA [XGTACX_site3494]	9.16

Sequence	gcPBM binding intensity (ln)
AATATATAAATAAATATATAAATAAATAATTGAAGC [CACACA_negctrl_site348]	9.63
TTCATTAATGTGTAATGTACTTGTAATATGGGATTA [XGTACX_site3903]	9.19
TGCTCATTCCTGTCATGTACATATTATATATATATA [XGTACX_site6890]	9.64
GAAAATATGTAATAGTGTACACATATATATGTATAT [XGTACX_site306]	9.33
ATATGAACATTTACATGTACATGTAAATGTAACACT [XGTACX_site4574]	9.29
CACAAAAAGAAACACACACACATATATATATATATA [CACACA_site999]	9.73
ATTCTAAATAATAAGAGTACAAATAATATGGAGAAG [XGTACX_site5209]	9.35
TTGTTTTTTTTTTCTATAAGCATAAAAATGATATAA [XGTACX_negctrl_site356]	8.82
TTTCTGTGTTTTGGTTGTACACACGCTACATTATAT [XGTACX_site5669]	9.97
TTTATTTATTATTAAAGTACTAAATCATATAATTAT [XGTACX_site5727]	8.95
AAATTAAAAAAATAATGTACATGTATTTATTATGTA [XGTACX_site2419]	9.21
TTTTATTTCTTTGCACCATTTTAAATACAAACAAAT [CACACA_negctrl_site1553]	9.24
TAAAACAATACTTTGTGCTTCTCTGGTTTTTTTTTT [GTGCAC_negctrl_site284]	9.26
GCTTTTAAAATAATTGGTACACATGTATAAATTCAA [XGTACX_site2327]	9.05
AGTATTCACTTAATATGTACATATTTATTATAAGAG [XGTACX_site3434]	9.11
TGGTATATAAAACACACACACATATGTATTTATATA [CACACA_site4665]	9.73
TTTTGCCTTTCTACTTGTACTTAAAATATTATAATT [XGTACX_site5483]	9.55
ACTCCATAATATTGATGTACTATAATGCATTTATTT [XGTACX_site5562]	9.59
TTATAGAATTTATTTACACACAAACATTTATACTTT [CACACA_site7592]	9.56
TATTTATTTTCATATAGTACTTTTTTCAGGCATATA [XGTACX_site6691]	9.09
